Assay results from the supplement of paper PMC12217912.
Some of the results follow. The full chains were built here from the parent and the listed change. Inactive controls read about 0.05.

B1: TEV protease; numbered along this chain (parent)
chain: MGESLFKGPRDYNPISSSICHLTNESDGHTTSLYGIGFGPFIITNKHLFRRNNGTLVVQSLHGVFKVKDTTTLQQHLVDGRDMIIIRMPKDFPPFPQKLKFREPQREERICLVTTNFQTKSMSSMVSDTSCTFPSGDGIFWKHWIQTKDGQCGSPLVSTRDGFIVGIHSASNFTNTNNYFTSVPKNFMELLTNQEAQQWVSGWRLNADSVLWGGHKVFMVKPEEPFQPVKEATQL

Variants of: B1
Experiment: raw area under fraction-flipped curve 0-4 h after induction (AUC4h, not background-subtracted), DNA-recorder readout of cleavage of the substrate (dimensionless); higher = more cleavage of the substrate by the protease variant
Conditions: temperature: 34 °C; time window: 0-4 h after rhamnose induction
Protocol: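 In vivo DNA recorder in E. coli TOP10(DE3) ΔrhaA at 34 °C. Each TEVp single-site mutant (parent TEVp 0) is paired with a single-site variant of the 7-mer TEVs (canonical ENLYFQ|S). The substrate sits between flexible linkers in a Bxb1-sfGFP-TEVs-SsrA fusion, so cleavage stabilises Bxb1 and speeds flipping of a recombination array, read by NGS. The value is the raw area under the fraction-flipped curve over 0-4 h after rhamnose induction (AUC4h), with ≥20 reads per time point. It is not background-subtracted; inactive controls average about 0.047.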
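Further: Bxb1 expression induced with 0.2% (w/v) L-rhamnose at OD600 near 0.5, cultures sampled hourly, flipped fraction per protease–substrate barcode pair counted by paired-end Illumina sequencing.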

Variant: MGESLFKGPRDYNPISSSICHLTNESDGHTTSLYGIGFGPFIITNKHLFRRNNGTLVVQSLHGVFKVKDTTTLQQHLVDGRDMIIIRMPKDFVPFPQKLKFREPQREERICLVTTNFQTKSMSSMVSDTSCTFPSGDGIFWKHWIQTKDGQCGSPLVSTRDGFIVGIHSASNFTNTNNYFTSVPKNFMELLTNQEAQQWVSGWRLNADSVLWGGHKVFMVKPEEPFQPVKEATQL [P93V]
- area with substrate ENLYFCS: 0.0754
- area with substrate ENLYFDS: 0.0484
- area with substrate ENLYFES: 0.0616
- area with substrate ENLYFFS: 0.0654
- area with substrate ENLYFHS: 0.0331
- area with substrate ENLYFIS: 0.0539
- area with substrate ENLYFMS: 0.0379
- area with substrate ENLYFTS: 0.0478
- area with substrate ENLYFVS: 0.0636

Variant: MGESLFKGPRDYNPISSSICHLTNESDGHTTSLYGIGFGPFIITNKHLFRRNNGTLVVQSLHGVFKVKDTTTLQQHLVDGRDMIIIRMPKDFPPFPQKLKFREPQREERICLVTTNFQTKSMRSMVSDTSCTFPSGDGIFWKHWIQTKDGQCGSPLVSTRDGFIVGIHSASNFTNTNNYFTSVPKNFMELLTNQEAQQWVSGWRLNADSVLWGGHKVFMVKPEEPFQPVKEATQL [S123R]
- area with substrate ENLYFCS: 0.0544
- area with substrate ENLYFDS: 0.0633
- area with substrate ENLYFES: 0.0657
- area with substrate ENLYFFS: 0.0658
- area with substrate ENLYFGS: 0.072
- area with substrate ENLYFIS: 0.0545
- area with substrate ENLYFKS: 0.0641
- area with substrate ENLYFLS: 0.0466
- area with substrate ENLYFMS: 0.0683
- area with substrate ENLYFNS: 0.067
- area with substrate ENLYFPS: 0.0618
- area with substrate ENLYFRS: 0.0684
- area with substrate ENLYFSS: 0.0604
- area with substrate ENLYFTS: 0.0547
- area with substrate ENLYFYS: 0.0598

Variant: MGESLFKGPRDYNPISSSICHLTNESDGHTTSLYGIGFGPFIITNKHLFRRNNGTLVVQSLHGVFKVKDTTTLQQHLVDGRDMIIIRMPKKFPPFPQKLKFREPQREERICLVTTNFQTKSMSSMVSDTSCTFPSGDGIFWKHWIQTKDGQCGSPLVSTRDGFIVGIHSASNFTNTNNYFTSVPKNFMELLTNQEAQQWVSGWRLNADSVLWGGHKVFMVKPEEPFQPVKEATQL [D91K]
- area with substrate ENLYFCS: 0.0655
- area with substrate ENLYFDS: 0.0591
- area with substrate ENLYFES: 0.0646
- area with substrate ENLYFHS: 0.0623
- area with substrate ENLYFIS: 0.0625
- area with substrate ENLYFMS: 0.085
- area with substrate ENLYFNS: 0.0727
- area with substrate ENLYFRS: 0.0587
- area with substrate ENLYFYS: 0.0577

Variant: MGESLFKGPRDYNPISSSICHLTNESDGHTTSLYGIGFGPFIITNKHLFRRNNGTLVVQSLHGVFKVKDTTTLQQHLVDGRDMIIIRMPKDFPPFPQKLKFREPQREERICLVTTNFQTKSMSSMVSDTSCTIPSGDGIFWKHWIQTKDGQCGSPLVSTRDGFIVGIHSASNFTNTNNYFTSVPKNFMELLTNQEAQQWVSGWRLNADSVLWGGHKVFMVKPEEPFQPVKEATQL [F133I]
- area with substrate ENLYFCS: 0.0586
- area with substrate ENLYFES: 0.0578
- area with substrate ENLYFFS: 0.0726
- area with substrate ENLYFIS: 0.0569
- area with substrate ENLYFPS: 0.0668
- area with substrate ENLYFSS: 0.0716
- area with substrate ENLYFVS: 0.0421
- area with substrate ENLYFWS: 0.0774

Variant: MGESLFKGPRDYNPISSSICHLTNESDGHTTSLYGIGFGPFIITNKHLFIRNNGTLVVQSLHGVFKVKDTTTLQQHLVDGRDMIIIRMPKDFPPFPQKLKFREPQREERICLVTTNFQTKSMSSMVSDTSCTFPSGDGIFWKHWIQTKDGQCGSPLVSTRDGFIVGIHSASNFTNTNNYFTSVPKNFMELLTNQEAQQWVSGWRLNADSVLWGGHKVFMVKPEEPFQPVKEATQL [R50I]
- area with substrate ENLYFCS: 0.0551
- area with substrate ENLYFDS: 0.0635
- area with substrate ENLYFES: 0.0733
- area with substrate ENLYFFS: 0.0581
- area with substrate ENLYFIS: 0.0566
- area with substrate ENLYFKS: 0.085
- area with substrate ENLYFLS: 0.034
- area with substrate ENLYFMS: 0.0483
- area with substrate ENLYFPS: 0.0594

Variant: MGESLFKGPRDYNPISSSICHLTNESDGHTTSLYGIGFGPFIITNKHLFRRNNGTLVVQSLHGVFKVKDTTTLQQHLVDGRDMIIIRMPKDFPPFPQKLKFREPQREERICLITTNFQTKSMSSMVSDTSCTFPSGDGIFWKHWIQTKDGQCGSPLVSTRDGFIVGIHSASNFTNTNNYFTSVPKNFMELLTNQEAQQWVSGWRLNADSVLWGGHKVFMVKPEEPFQPVKEATQL [V113I]
- area with substrate ENLYFCS: 0.0591
- area with substrate ENLYFES: 0.0625
- area with substrate ENLYFHS: 0.0549
- area with substrate ENLYFLS: 0.06
- area with substrate ENLYFMS: 0.0675
- area with substrate ENLYFPS: 0.0524
- area with substrate ENLYFRS: 0.0538
- area with substrate ENLYFTS: 0.0676
- area with substrate ENLYFVS: 0.0556

Variant: MGESLFKGPRDYNPISSSICHLTNESDGHTTSLYGIGFGPFIITNKHLFRRNNGTLVVQSLHGVFKVKDTTTLQQHLVDGRDMIIIRMPKDFPPFPQKLKFREPQREERICLVTTNFQTKSMSSMVSDTSCTFPSGDGIFWKHWIQTKDGQCGSPLVSTRDGFIVGIHSASNFQNTNNYFTSVPKNFMELLTNQEAQQWVSGWRLNADSVLWGGHKVFMVKPEEPFQPVKEATQL [T174Q]
- area with substrate ENLYFCS: 0.0488
- area with substrate ENLYFDS: 0.0484
- area with substrate ENLYFGS: 0.0722
- area with substrate ENLYFIS: 0.0498
- area with substrate ENLYFMS: 0.0671
- area with substrate ENLYFNS: 0.0544
- area with substrate ENLYFPS: 0.0765
- area with substrate ENLYFRS: 0.0589
- area with substrate ENLYFSS: 0.0575
- area with substrate ENLYFWS: 0.0621
- area with substrate ENLYFYS: 0.0556

Variant: MGESLFKGPRDYNPISSSICHLTNESDGHTTSLYGIGFGPFIITNKHLFRRNNGTLVVQSLHGVFKVKDTTTLQQHLVDGWDMIIIRMPKDFPPFPQKLKFREPQREERICLVTTNFQTKSMSSMVSDTSCTFPSGDGIFWKHWIQTKDGQCGSPLVSTRDGFIVGIHSASNFTNTNNYFTSVPKNFMELLTNQEAQQWVSGWRLNADSVLWGGHKVFMVKPEEPFQPVKEATQL [R81W]
- area with substrate ENLYFCS: 0.0511
- area with substrate ENLYFDS: 0.056
- area with substrate ENLYFES: 0.0721
- area with substrate ENLYFFS: 0.0632
- area with substrate ENLYFGS: 0.0615
- area with substrate ENLYFIS: 0.061
- area with substrate ENLYFKS: 0.0435
- area with substrate ENLYFLS: 0.0646
- area with substrate ENLYFNS: 0.0539
- area with substrate ENLYFPS: 0.0853
- area with substrate ENLYFSS: 0.0479
- area with substrate ENLYFWS: 0.061
- area with substrate ENLYFYS: 0.0696

Variant: MGESLFKGPRDYNPISSSICHLTNESDGHTTSLYGIGFGPFIITNKHLFRRNNGTLVVQSLHGVFKVKDTTTLQQHLVDGRDMIIIRMPKDFPPFPQKLKFREPQREERICLVTTNFQTKSMSSMVSDTSCTFPSGDGIFWKHWIQTKDGQCGSPLVFTRDGFIVGIHSASNFTNTNNYFTSVPKNFMELLTNQEAQQWVSGWRLNADSVLWGGHKVFMVKPEEPFQPVKEATQL [S158F]
- area with substrate ENLYFCS: 0.044
- area with substrate ENLYFDS: 0.0532
- area with substrate ENLYFES: 0.0634
- area with substrate ENLYFFS: 0.0709
- area with substrate ENLYFGS: 0.0564
- area with substrate ENLYFHS: 0.0139
- area with substrate ENLYFIS: 0.0566
- area with substrate ENLYFPS: 0.0348
- area with substrate ENLYFRS: 0.0385
- area with substrate ENLYFTS: 0.0539

Variant: MGESLFKGPRDYNPISSSICHLTNESDGHTTSLYGIGFGPFIITNKHLFRRNNGTLVVQSLHGVFKVKDTTTLQQHLVDGRDMIIIRMPKDFPPFPQKLKFREPQREERICLVTTNFQTKSMSSMVSDTSCTFPSGDGIFWKHWIQTKDGQCGSPLVSTRDGFIVGIHSASNFTNTNNYFTSVPKNFMELLTNQEAQQWVSTWRLNADSVLWGGHKVFMVKPEEPFQPVKEATQL [G202T]
- area with substrate ENLYFCS: 0.0491
- area with substrate ENLYFHS: 0.0035
- area with substrate ENLYFMS: 0.051
- area with substrate ENLYFPS: 0.0304
- area with substrate ENLYFSS: 0.0826
- area with substrate ENLYFWS: 0.106
